Results taken from PubChem BioAssay AID686979 (National Center for Advancing Translational Sciences (NCATS), 2013).
Where “and” joins values, the source holds several entries; their conditions need not be identical. Equal entries are not always repeated. Among all 420,000 compounds or so, about 50,000 (12%) were called active. The inconclusive results got no clear call from the source; some entries with a clear call stand among them for comparison. Calls come from the whole dose curve; as a rule, active = well fitted inhibition curve with a large enough effect; inconclusive = small, poorly fitted or top-dose-only effect; inactive = flat fitted curve, though single readings scatter. A potency beside an inconclusive call is a rough fit, not a confirmed value.
% is set by controls: 0 for no effect and ±100 for the full control effect; potency is the fitted concentration of half-maximal effect; tags give direction and shape of the fitted curve.

Assay: qHTS for Inhibitors of human tyrosyl-DNA phosphodiesterase 1 (TDP1): qHTS in cells in presence of CPT; note: nearly all actives have a fitted effect of over 55% in size
Conditions: chicken DT40 Tdp1-/-;hTDP1 cells + 20 nM CPT, ATP luminescence, 48 h; activity change, negative = growth inhibition: at 46.2 µM (top of the series)
Procedure, shortened: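 Chicken DT40 Tdp1-/- cells complemented with human TDP1, 400 cells/well, exposed to compounds plus 20 nM camptothecin for at least 48 h at 37 C; viability read as ATP content by CellTiter-Glo luminescence.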
For COc1cc2nc(N3CCCN(C)CC3)nc(NC3CCN(Cc4ccccc4)CC3)c2cc1OC, the Potency was active: 10 µM and active: 2.51 µM.
For CN(C)CCCN(C(=O)COc1ccc(Cl)cc1)c1nc2cc3c(cc2s1)OCO3, the Potency was active: 8.2 µM.
For O=C(N/N=C/c1cc(O)ccc1[N+](=O)[O-])c1ccc2c(c1)OCCO2, the Potency was inconclusive: 10.3 µM [inhibitor, partial curve, poor fit].
In the case of COc1cc(CN2CCCC(CO)(Cc3ccccc3C)C2)cc2c1OCO2 (stereo not given), the Potency is reported as active: 14.6 µM.
With O=C(O)CCCCCN=C1CCc2ccccc2N1 the Potency was “inactive”.
With Cc1ccc(NC(=S)NCCc2ccccc2)nc1 the Potency was inconclusive: 25.9 µM [inhibitor, single point].
With COc1ccc(Nc2nc(-c3ccccc3O)nc3ccccc23)cc1 the Potency was inconclusive: 18.4 µM [inhibitor, single point].
For Cc1c(-c2ccc(Cl)cc2)c(=O)oc2c(CN3CCN(C)CC3)c(O)ccc12, the Potency was inconclusive: 29.1 µM [inhibitor, single point].
For CCOC(=O)C1CCN(S(=O)(=O)c2cc(C(=O)OC)n(C)c2)CC1, the activity change, negative = growth inhibition was inconclusive: -28.8% [inhibitor].
In the case of CC(=O)Oc1ccc2c(=O)c(Oc3ccccc3)coc2c1OC(C)=O, the Potency is reported as “inactive”.
With Cc1sc2ccccc2[n+]1CCC(C)S(=O)(=O)[O-] (stereo not given) the Potency was “inactive”.
With O=C1NCCSC1c1ccccc1 (stereo not given) the Potency was “inactive”.
In the case of O=c1c2cc([N+](=O)[O-])ccc2nc2n1CCC2, the Potency is reported as “inactive”.
In the case of Brc1ccc2c(c1)C(c1cccnc1)=NNC(c1cccs1)=N2, the Potency is reported as inconclusive: 18.4 µM [inhibitor, single point].
For CCOC(=O)C1CCCN(C(=O)c2cc3c(Cl)nc4ccccc4c3s2)C1 (stereo not given), the Potency was inconclusive: 29.1 µM [inhibitor, single point].
With COc1cc2c(cc1OC)CN(C(=O)c1ccc3[nH]c(C)c(C)c3c1)CC2 the Potency was inconclusive: 23.1 µM [inhibitor, single point].
With Cc1ccc(OCC(=O)N2CCOCC2)cc1C the Potency was “inactive”.
With O=C(Nc1cccc(Cl)c1)C(Cc1ccccc1)n1cccc1 (stereo not given) the Potency was active: 23.1 µM.
For O=C(/C=C1\OCc2ccccc21)OCc1ccccc1, the Potency was inconclusive: 29.1 µM [inhibitor, single point].
In the case of CC1=C(C(N)=O)C(c2cccs2)n2nc(-c3cccc(C)c3)nc2N1 (stereo not given), the Potency is reported as inconclusive: 29.1 µM [inhibitor, single point].
In the case of O=C(Nc1ccccc1)c1cc2ccc3ccccc3c2s1, the Potency is reported as “inactive”.
With COc1ccc(C(C[N+](=O)[O-])c2c(C)[nH]c3ccccc23)cc1OC (stereo not given) the Potency was inconclusive: 29.1 µM [inhibitor, single point].
For COc1ccc(OC)c(CN2C(=O)c3ccccc3C2c2nnnn2C2CCCC2)c1 (stereo not given), the Potency was inconclusive: 18.4 µM [inhibitor, single point].
For CCC1Oc2ccc(C)cc2N(CC(=O)NCc2ccc(F)cc2)C1=O (stereo not given), the Potency was inconclusive: 25.9 µM [inhibitor, single point].
In the case of CC(C(=O)NCc1ccco1)n1nc(-c2ccccc2)c2cc(Cl)ccc21 (stereo not given), the Potency is reported as inconclusive: 16.4 µM [inhibitor, partial curve].
With c1ccc(N=NC2=NN(c3ccccc3)CS2)cc1 the Potency was inconclusive: 3.26 µM [inhibitor, partial curve, poor fit].
With CC(C)c1nn2c(=O)cc(COC(=O)c3cccc(NC(=O)c4ccccc4F)c3)nc2s1 the Potency was inconclusive: 29.1 µM [inhibitor, single point].
With Cc1ccc(OCCNC(=O)CN2C(=O)NC3(CCCC3)C2=O)cc1 the Potency was “inactive”.
For CC(C)SC1=NC(C)(C)C=C(/C=C/c2ccc(Cl)cc2Cl)N1, the Potency was inconclusive: 29.1 µM [inhibitor, single point].
For Cc1cc(C)nc(NC2=NCC(=O)N2CCc2c[nH]c3ccccc23)n1, the Potency was “inactive”.
In the case of O=S(=O)(c1cccc2cnccc12)N1CCCNCC1, the Potency is reported as inconclusive: 26.6 µM [inhibitor, partial curve, poor fit] [middle of 4 runs].
In the case of CCOC(=O)C1CCCCN1S(=O)(=O)c1cc2c(cc1C)NC(=O)CO2 (stereo not given), the Potency is reported as inconclusive: 5.8 µM [inhibitor, partial curve].
In the case of CCOC(=O)c1ccc2c(c1)sc1nc(-c3ccc(OCC)cc3)cn12, the Potency is reported as inconclusive: 29.1 µM [inhibitor, single point].
In the case of CCn1c(=S)sc2c(=O)n(CC(=O)Nc3cccc(Cl)c3)c(C)nc21, the Potency is reported as inconclusive: 29.1 µM [inhibitor, single point].
For CCN(CC)S(=O)(=O)c1ccc(Nc2ccc(-c3ccc4c(c3)OCCO4)nn2)cc1, the Potency was active: 5.17 µM.
For CC(=O)c1cccc(NC(=O)COC(=O)c2ccc3c(c2)OCCO3)c1, the Potency was “inactive”.
For COc1cccc(CNC(=O)Cn2c(=O)cc(C(F)(F)F)c3c(C)nn(C)c32)c1OC, the Potency was inconclusive: 32.6 µM [inhibitor, single point].
With COC(=O)CSc1cc(C)nc(SC)n1 the Potency was “inactive”.
In the case of O=C(NCCS(=O)(=O)N1CCN(c2ccccc2F)CC1)c1ccccc1C(F)(F)F, the Potency is reported as inconclusive: 13 µM [inhibitor, single point].
In the case of COc1ccccc1Cc1nc(-c2ccc(C)cc2)no1, the Potency is reported as “inactive”.
In the case of Cc1ncoc1C(=O)Nc1cccc(Cl)c1C, the Potency is reported as inconclusive: 20.6 µM [inhibitor, single point].
With O=C(c1cccc(C(F)(F)F)c1)C1CCCN(C(=O)c2cc(C3CC3)[nH]n2)C1 (stereo not given) the Potency was inconclusive: 16.4 µM [inhibitor, single point].
For Cc1cc(C)cc(NC(=O)C2C3C=CC4(O3)C2C(=O)N(CCN2CCCCC2)C4C(=O)NC2CCCCC2)c1 (stereo not given), the Potency was “inactive”.
With Cc1ccc(S(=O)(=O)c2cn(CC(=O)Nc3ccccc3)c3ccc(F)cc3c2=O)cc1 the Potency was inconclusive: 16.4 µM [inhibitor, single point].
For NC(Cc1ccc(F)cc1)c1csc(Nc2nncc3ccccc23)n1 (stereo not given), the Potency was active: 4.11 µM.
With O=C1COc2ccc(C(=O)/C=C/c3ccccc3)cc2N1 the Potency was active: 5.17 µM.
For O=C(N/N=C/c1ccoc1)c1ccc([N+](=O)[O-])cc1, the Potency was “inactive”.
In the case of CCC1CCCCN1S(=O)(=O)c1ccccc1[N+](=O)[O-] (stereo not given), the Potency is reported as active: 20.6 µM.
With CC(C)(C)OC(=O)N1CCN(C(=O)c2[nH]cnc2C(=O)Nc2ccc(Cl)cc2)CC1 the Potency was inconclusive: 29.1 µM [inhibitor, single point].
With O=C(OCc1nnc(-c2ccccc2)o1)c1ccc([N+](=O)[O-])s1 the Potency was inconclusive: 0.0058 µM [inhibitor, full curve, poor fit].
For COc1c(C)cc(Br)cc1C(=O)Nc1cccc(NC(=O)c2ccco2)c1, the Potency was inconclusive: 16.4 µM [inhibitor, single point].
For CC1CCCCCCC1OC(=O)c1ccccc1C(=O)O (stereo not given), the Potency was “inactive”.
For CC(/C=N\NC(=O)CN1CCN(S(=O)(=O)c2ccc(C)cc2)CC1)=C\c1ccccc1, the Potency was inconclusive: 16.4 µM [inhibitor, single point].
In the case of Cc1cc(C)cc(N)c1, the Potency is reported as “inactive”.
In the case of CC1(C(=O)NC2CCCCCC2)CCN1C(=O)Cc1ccc(-c2ccccc2)cc1 (stereo not given), the Potency is reported as inconclusive: 29.1 µM [inhibitor, single point].
For CCOc1cc(/C=C2/SC(=S)NC2=O)ccc1OC(=O)c1ccco1, the Potency was active: 23.1 µM.
For O=C(Nc1cccn(Cc2c(Cl)cccc2Cl)c1=O)C1CC1, the Potency was inconclusive: 29.1 µM [inhibitor, single point].
For CCOc1ccc(-c2nnn(CC(=O)c3ccc4c(c3)OCCO4)n2)cc1OCC, the Potency was inconclusive: 29.1 µM [inhibitor, single point].
With Cc1ccc(C)c(N2CCN(C(=O)CCc3nc4ccccc4[nH]3)CC2)c1 the Potency was inconclusive: 25.9 µM [inhibitor, single point].
For C=CCNc1nc(Cl)nc(NCc2ccco2)n1, the Potency was “inactive”.
For CCCCOP(=O)(c1ccc(N(C)C)cc1)C(O)c1ccccc1F (stereo not given), the activity change, negative = growth inhibition was inconclusive: -35% [inhibitor].
With CCOc1cc(/C=N/NC(=O)c2ccc(N(C)S(=O)(=O)c3ccccc3)cc2)ccc1OC the Potency was inconclusive: 29.1 µM [inhibitor, single point].
For CCc1ncc(CN2CCCC(C(=O)Nc3cccc(-c4ccc(F)cc4)c3)C2)cn1 (stereo not given), the Potency was active: 23.1 µM.
With CN(CC(=O)Nc1cc(Cl)ccc1C#N)C1CCS(=O)(=O)C1 (stereo not given) the Potency was “inactive”.
In the case of Cc1ccc(CNC(=O)CCC(=O)Nc2nnc(C)s2)cc1, the Potency is reported as “inactive”.
With Fc1ccc(F)c(Nc2c3c(nc4ccc(Cl)cc24)CCC3)c1 the Potency was active: 16.4 µM.
In the case of CCOCCCNC(=O)/C(C#N)=C/c1cc(C)c(O)c(C)c1, the Potency is reported as inconclusive: 23.1 µM [inhibitor, single point].
For Cn1c(SCc2ccccc2)nc(C(F)(F)F)cc1=O, the Potency was “inactive”.
For COc1ccccc1/C=C(/C(=O)OCC(=O)N(C)Cc1ccccc1)c1ccccc1, the Potency was inconclusive: 20.6 µM [inhibitor, single point].
In the case of CC(C)CC(=O)N1CCN(Cc2ccc(Br)cc2)CC1, the Potency is reported as inconclusive: 8.2 µM [inhibitor, partial curve].
With O=C(c1cccc(Cn2cccn2)c1)N1CCOc2c(cc(-c3csc4ccccc34)cc2OC2CCOC2)C1 (stereo not given) the Potency was active: 18.4 µM.
In the case of CCCN(C#N)c1nc(NCC)nc(NC(C)C)n1, the Potency is reported as inconclusive: 25.9 µM [inhibitor, single point].
In the case of CCc1cc(/C=C/c2ccnc3ccccc23)ccc1N(C)C, the Potency is reported as active: 5.01 µM.
In the case of CCCNC(=S)N1CCC(NC(=O)C2CCCCC2)CC1, the Potency is reported as active: 16.4 µM.
For CSCCC(NS(=O)(=O)c1ccccc1F)C(=O)N1CC=C(c2ccccc2)CC1 (stereo not given), the Potency was inconclusive: 20.6 µM [inhibitor, single point].
